Data taken from paper PMC10668032.
Some of the results follow. At the low end of the ranking the order means little.

The sequences below were run against SIX1 homeodomain (reference allele) (UniProt Q15475) (assay: universal protein binding microarray). Conditions: Universal all-10-mer PBM (8x60K, AMADID 030236), 300 nM GST-tagged protein, Alexa Fluor 488 anti-GST; buffer, salt, pH and temperature not stated; high values mean tight binding; most listed sequences are background and not binding sites; double strand, one strand shown.

Sequence | binding signal [E-score]
CATCGGCA | 0.0581
TGTGCCAA | -0.0281
CAGACACA | -0.0664
AGGCCTGG | -0.237
ATAGTTAG | -0.0308
ACTACAGG | 0.0531
ACCAGTCG | 0.0056
CGGACGGA | -0.153
GCTATGAA | -0.0104
CATATCAG | 0.436
GGGCAGAA | 0.00345
AAGTGAAC | -0.132
ATCCCCGC | 0.326
AGTGTCTG | -0.00382
ACTGCAGT | -0.408
ACCTGCAT | -0.0571
AACATTTC | -0.362
AAGGAGGA | 0.0368
GAGCGCTA | -0.0992
CCGCTACA | -0.0333
AATAGTTC | -0.336
GGTGTGTA | 0.108

Sequence | binding signal [E-score]
GACCGAAC | -0.142
GTTCGCCA | -0.204
ATCCCCGA | 0.368
AGAGCGCG | -0.204
TCGATTCA | -0.0542
AATTGATG | -0.137
ATTATTTC | -0.0207
CAGCGTTC | -0.276
ATACCCGC | 0.379
CCCACCGG | 0.0358
CGGGCTAA | -0.0753
CCTAGCTC | -0.0541
TACGGAAA | -0.214
CTCGATTC | -0.0382
ACTAAGCC | -0.107
CATTGTGC | -0.194
CTCAGCGA | 0.139
ACTTGGCG | -0.242
ACACGGAC | 0.0252
TCCCCCCA | -0.0273
ATGCGACC | 0.135
GAGTCGAC | -0.00911

Sequence | binding signal [E-score]
CCGATCCG | 0.428
AAGGCCGT | -0.0984
TAAGGCTA | -0.0214
AACAACCA | -0.243
ATCGTCTC | 0.304
AGAGAAAT | -0.125
AACAGCAG | -0.0969
CACCCACA | 0.0515
AGGGGAAT | 0.0637
ACTGCTAT | 0.177
ACTGCCGC | -0.182
CGACTGCG | -0.0688
ATCGAGCG | 0.156
GGTACACC | 0.298
AATGGTGG | -0.0872
CGAGGGTC | -0.276
ACGTGACA | -0.134
CTCATAAA | -0.0141
CGAAGCGC | -0.0455
ATCTTCAG | 0.153
GAGACCTA | 0.116
AGCTCTAG | -0.0365

Sequence | binding signal [E-score]
ACCCGAAC | 0.0616
AGGGCGAA | -0.272
CCTCTCGC | -0.0679
CAAATGAG | -0.0774
ATCTGGAC | 0.208
ATATGTCA | 0.166
AGGCCTGA | 0.0224
AATTAGTA | -0.0701
AACAAGTA | -0.207
ATTGCAGC | -0.00129
CTGCACCC | 2.5e-05
ACTAAACG | 0.0109
GCGTCCAC | -0.114
GTTTGCTA | -0.196
TCCCCTAA | 0.263
CCGGCACA | -0.0294
ACCCCGCC | 0.188
ACGAACAC | -0.0303
TAAAAGCA | -0.152
ACTCAAAA | -0.0927
